Source: patent US20260184782A1 (TWIST BIOSCIENCE, published 2026)
Where a chain is given by its changes, count along the chain named.

B1: TIGIT-30-43 (Fc fusion)
chain: EVQLVESGGGLVQAGGSLRLSCAASGFTFSTSWMGWFRQAPGKERELVAARNSGGNTNYADSVKGRFTISADNAKNTVYLQMNSLKPEDTAVYYCAADVWYGSTWRNWGQGTQVTVSSGGGGS[in this place human IgG1 Fc with C220S (EU numbers)]
notes: VHH-Fc
B2: TIGIT-31-26 (Fc fusion)
chain: B1 chain with A14P, S30D, T31R, R51I, N52T, N56S, N58Y, A74S, V78A, Q113L
notes: VHH-Fc
B3: TIGIT-31-08 (Fc fusion)
chain: B1 chain with A14P, A74S, V78A, Q113L
notes: VHH-Fc; also called 31-8; TIGIT-31-8
B4: TIGIT-31-01 (Fc fusion)
chain: EVQLVESGGGLVQPGGSLRLSCAASGFTFDRSWMGWFRQAPGKEREVVASITSGGSTYYADSVKGRFTISADNSKNTAYLQMNSLKPEDTAVYYCAADVWYGSTWRNWGQGTLVTVSSGGGGS[in this place human IgG1 Fc with C220S (EU numbers)]
notes: VHH-Fc; also called 31-1; TIGIT-31-1
B5: TIGIT-31-06 (Fc fusion)
chain: B4 chain with D30S, R31T, V47L
notes: VHH-Fc; also called 31-6; TIGIT-31-6
B6: TIGIT-31-32 (Fc fusion)
chain: B1 chain with A14P, R51M, N52T, N56G, A74S, V78A, Q113L
notes: VHH-Fc
B7: TIGIT-31-56 (Fc fusion)
chain: EVQLVESGGGLVQPGGSLRLSCAASGRIFRRNSMGWFRQAPGKEREFVAVITRSGGGEVTTYADSVKGRFTINADNSKNTAYLQMNSLKPEDTAVYYCAMSSVTRGSSDWGQGTLVTVSTGGGGS[in this place human IgG1 Fc with C220S (EU numbers)]
notes: VHH-Fc
B8: TIGIT-30-30 (Fc fusion)
chain: EVQLVESGGGLVQAGGSLRLSCAASGGTFSGRGMGWFRQAPGKEREWVSSVYIFGGSTYYADSVKGRFTISADNAKNTVYLQMNSLKPEDTAVYYCANSNKPKFDWGQGTQVTVSSGGGGS[in this place human IgG1 Fc with C220S (EU numbers)]
notes: VHH-Fc
B9: TIGIT-29-07 (Fc fusion)
chain: EVQLVESGGGLVQAGGSLRLSCAASGSIFSNYAMGWFRQAPGKEREFVATISRGGTRTNYADSVKGRFTISADNAKNTVYLQMNSLKPEDTAVYYCAAAAWTIYAYNYWGQGTQVTVSSGGGGS[in this place human IgG1 Fc with C220S (EU numbers)]
notes: VHH-Fc; also called 29-7; TIGIT-29-7
B10: TIGIT-29-10 (Fc fusion)
chain: EVQLVESGGGLVQAGGSLRLSCAASGRTFSNYGMGWFRQAPGKEREFVSGISGSGGRTSYADSVKGRFTISADNAKNTVYLQMNSLKPEDTAVYYCAANLWYPVDRLNTGFNYWGQGTQVTVSSGGGGS[in this place human IgG1 Fc with C220S (EU numbers)]
notes: VHH-Fc
B11: TIGIT-29-20 (Fc fusion)
chain: EVQLVESGGGLVQAGGSLRLSCAASGSTFSIYAMGWFRQAPGKERELVASISWSGDTTNYADSVKGRFTISADNAKNTVYLQMNSLKPEDTAVYYCAAGSVYGRNSWGQGTQVTVTSGGGGS[in this place human IgG1 Fc with C220S (EU numbers)]
notes: VHH-Fc
B12: TIGIT-31-30 (Fc fusion)
chain: EVQLVESGGGLVQPGGSLRLSCAASGRTYNMGWFRQAPGKEREWVATIYSRSGGSTTYYADSVKGRFTISADNSKNTAYLQMNSLKPEDTAVYYCATYGYDSGRYYSWGQGTLVTVSSGGGGS[in this place human IgG1 Fc with C220S (EU numbers)]
B13: TIGIT-30-57 (Fc fusion)
chain: EVQLVESGGGLVQAGGSLRLSCAASGPTFSIYDMGWFRQAPGKEREFVAAITWNSGRIGYADSVKGRFTISADNAKNTVYLQMNSLKPEDTAVYYCAAGVWSSLRHTAANWGQGTQVTVSSGGGGS[in this place human IgG1 Fc with C220S (EU numbers)]
notes: VHH-Fc
B14: TIGIT-30-14 (Fc fusion)
chain: B13 chain with I58T, G59N, V100A, H106K, N110S
notes: VHH-Fc
B15: TIGIT-30-20 (Fc fusion)
chain: B13 chain with A50V, T52N, N54S, S55R, R57S, I58T, G59F
notes: VHH-Fc
B16: TIGIT-30-54 (Fc fusion)
chain: EVQLVESGGGLVQAGGSLRLSCAASGFTFRSFGMGWFRQAPGKEREFVASTIWSRGDTYYADSVKGRFTISADNAKNTVYLQMNSLKPEDTAVYYCASSPYGPLYRSTHYYDWGQGTQVTVSSGGGGS[in this place human IgG1 Fc with C220S (EU numbers)]
notes: VHH-Fc
B17: TIGIT-29-18 (Fc fusion)
chain: EVQLVESGGGLVQAGGSLRLSCAASGSTFSNYAMGWFRQAPGKEREFVSAINSSGSRTYYADSVKGRFTISADNAKNTVYLQMNSLKPEDTAVYYCAARLWGTWTAGDYDYWGQGTQVTVSSGGGGS[in this place human IgG1 Fc with C220S (EU numbers)]
notes: VHH-Fc
B18: TIGIT-29-22 (Fc fusion)
chain: B17 chain with T28I, F29L, N31S, A33T, A50T, N52S, S53R, G55S, S56T
notes: VHH-Fc
B19: TIGIT-29-34 (Fc fusion)
chain: B17 chain with S27F, S30R, A50S, N52S, G55S, Y59S
notes: VHH-Fc
B20: TIGIT-31-34 (Fc fusion)
chain: EVQLVESGGGLVQPGGSLRLSCAASGRSRYGMGWFRQAPGKEREFVSAISWSGISTYYADSVKGRFTISADNSKNTAYLQMNSLKPEDTAVYYCAATQWGSSGWKQARWYDWGQGTLVTVSSGGGGS[in this place human IgG1 Fc with C220S (EU numbers)]
notes: VHH-Fc
B21: TIGIT-29-31 (Fc fusion)
chain: EVQLVESGGGLVQAGGSLRLSCAASGFTFSIYAMGWFRQAPGKEREWVSTISWSGGNTYYADSVKGRFTISADNAKNTVYLQMNSLKPEDTAVYYCATRPRFRRYDSWGQGTQVTVSSGGGGS[in this place human IgG1 Fc with C220S (EU numbers)]
notes: VHH-Fc
B22: TIGIT-30-55 (Fc fusion)
chain: EVQLVESGGGLVQAGGSLRLSCAASGNTFSGGFMGWFRQAPGKEREWVASVLRGGYTWYADSVKGRFTISADNAKNTVYLQMNSLKPEDTAVYYCATGWQSTTKSQGWGQGTQVTVSSGGGGS[in this place human IgG1 Fc with C220S (EU numbers)]
notes: VHH-Fc
B23: TIGIT-29-06 (Fc fusion)
chain: EVQLVESGGGLVQAGGSLRLSCAASGGTFRSYVMGWFRQAPGKEREWVATINSSGSRTYYADSVKGRFTISADNAKNTVYLQMNSLKPEDTAVYYCAARPNYRDYEYWGQGTQVTVSSGGGGS[in this place human IgG1 Fc with C220S (EU numbers)]
notes: VHH-Fc; also called 29-6
B24: TIGIT-30-9 (Fc fusion)
chain: EVQLVESGGGLVQAGGSLRLSCAASGPISGINRMGWFRQAPGKEREWVSTITFNGDHTYYADSVKGRFTISADNAKNTVYLQMNSLKPEDTAVYYCAARPYTRPGSMWVSSLYDWGQGTQVTVSSGGGGS[in this place human IgG1 Fc with C220S (EU numbers)]
notes: VHH-Fc
B25: TIGIT-30-49 (Fc fusion)
chain: EVQLVESGGGLVQAGGSLRLSCAASGNIFSRYIMGWFRQAPGKEREWVAGISNGGTTKYADSVKGRFTISADNAKNTVYLQMNSLKPEDTAVYYCAQGWKIVPTNWGQGTQVTVSSGGGGS[in this place human IgG1 Fc with C220S (EU numbers)]
notes: VHH-Fc
B26: TIGIT-29-27 (Fc fusion)
chain: EVQLVESGGGLVQAGGSLRLSCAASGRTFSNNVMGWFRQAPGKEREFVAAISWGGASTNYADSVKGRFTISADNAKNTVYLQMNSLKPEDTAVYYCAAGPKTPDTRNYWGQGTQVTVSSGGGGS[in this place human IgG1 Fc with C220S (EU numbers)]
notes: VHH-Fc
B27: TIGIT-31-24 (Fc fusion)
chain: EVQLVESGGGLVQPGGSLRLSCAASGRTFSMGWFRQAPGKEREFVATVRWGTSSTYYADSVKGRFTISADNSKNTAYLQMNSLKPEDTAVYYCAAETFGSGSSLMSEYDWGQGTLVTVSSGGGGS[in this place human IgG1 Fc with C220S (EU numbers)]
notes: VHH-Fc

The binders below were run against T1, TIGIT (T cell immunoreceptor with Ig and ITIM domains) (UniProt Q495A1 22-141, limits assumed) (assay: competition ELISA: immobilised TIGIT, VHH-Fc 0.05-100 nM, then biotin-CD155, streptavidin-HRP).
T1 sequence (looked up): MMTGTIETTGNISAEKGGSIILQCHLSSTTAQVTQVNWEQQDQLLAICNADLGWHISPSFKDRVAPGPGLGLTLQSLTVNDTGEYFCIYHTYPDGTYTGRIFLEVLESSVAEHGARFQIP
Protocol: Thermostability and competition analysis of the VHH-Fc TIGIT clones is seen in FIG. 9 and Table 6. For the competition assays, 4 μg/mL TIGIT was immobilized and incubated with 0.05-100 nM VHH-Fc followed by incubation with 2 μg/mL biotin-CD155 and 1:5000 streptavidin-HRP.
For B1, the IC50 was 2.32 nM. B2 gave an IC50 of 8.2 nM. In the case of B3, the IC50 is reported as 3.92 nM. B4 showed an IC50 of 17.9 nM. Binder B5 has an IC50 of 4 nM. With B6 the IC50 was 2.85 nM. B7 showed an IC50 of 1.52 nM. B8 was tested, and the IC50 was 5.67 nM. Work on B9 yielded an IC50 of 9.24 nM. Binder B10 has an IC50 of 17.6 nM.

What follows are binders tested against T1, TIGIT (T cell immunoreceptor with Ig …) (assay: SPR (Carterra), VHH-Fc).
Text: (§1) The Carterra SPR system was used to assess binding affinity and affinity distribution for VHH-Fc variants. […] Table 5A provides specific values for the VHH-Fc clones for ELISA, Protein A (mg/ml), and KD (nM). FIG. 7A and FIG. 7B depict TIGIT affinity distribution for the VHH libraries, over the 20-4000 affinity threshold (FIG. 7A; monovalent KD) and the 20-1000 affinity threshold (FIG. 7B; monovalent KD).
B1 gave a Kd of 44 nM. B2 gave a Kd of 19 nM. B3 gave a Kd of 45 nM. For B4, the Kd was 12 nM. Binder B5 has a Kd of 14 nM. For B6, the Kd was 27 nM. For B7, the Kd was 46 nM. B8 was tested, and the Kd was 23 nM. In the case of B9, the Kd is reported as 41 nM.

Biological target: T1, TIGIT (T cell immunoreceptor with Ig …)
Test: SPR (Carterra), VHH-Fc
Remark: another data set of the same source
Text: as §1
In the case of B11, the Kd is reported as 83 nM. With B12 the Kd was 93 nM. B13 was tested, and the Kd was 95 nM. With B14 the Kd was 75 nM. With B15 the Kd was 74 nM. For B1, the Kd was 44 nM. In the case of B2, the Kd is reported as 19 nM. With B3 the Kd was 45 nM. B4 gave a Kd of 12 nM. For B5, the Kd was 14 nM. In the case of B6, the Kd is reported as 27 nM. B16 was tested, and the Kd was 58 nM. Work on B17 yielded a Kd of 78 nM. B18 showed a Kd of 65 nM. B19 was tested, and the Kd was 80 nM. In the case of B20, the Kd is reported as 70 nM. B21 was tested, and the Kd was 96 nM. B22 showed a Kd of 85 nM. B23 was tested, and the Kd was 69 nM. Binder B7 has a Kd of 46 nM. For B8, the Kd was 23 nM. B24 was tested, and the Kd was 79 nM. Work on B25 yielded a Kd of 62 nM. With B26 the Kd was 82 nM. With B9 the Kd was 41 nM. Work on B27 yielded a Kd of 75 nM. For B10, the Kd was 32 nM.
